Test results reported in PubChem BioAssay AID485364 (National Center for Advancing Translational Sciences (NCATS), 2010).
In all, about 360,000 compounds went through this assay and about 11,000 (3.1%) were called active. The shares of active, inactive and inconclusive entries below differ from those in the screen. Calls come from the whole dose curve; as a rule, active = well fitted inhibition curve with a large enough effect; inconclusive = small, poorly fitted or top-dose-only effect; inactive = no such curve, though single readings can be large or run the other way. Potencies of inconclusive entries are left out as doubtful fits.

Biological target: Schistosoma mansoni thioredoxin glutathione reductase (TGR) (UniProt Q962Y6)
Assay: qHTS Assay for the Inhibitors of Schistosoma Mansoni Peroxiredoxins; note: nearly all actives have a fitted effect of over 60% in size
Conditions: purified TGR, DTNB reduction, TNB absorbance 405 nm; activity change, negative = inhibition: at 114 µM (top of the series) unless noted
Outline: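 TGR 20 nM + NADPH 100 uM (dispensed conc.), cpd preinc 15 min RT; start with NADPH (500 uM addition) then DTNB (15 mM addition). Kinetic TNB absorbance, 405 nm filter. Four-parameter Hill fit across titration.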
% is set by controls: 0 for no effect and ±100 for the full control effect; potency is the fitted concentration of half-maximal effect; tags give direction and shape of the fitted curve.

Structure (SMILES)	activity change, negative = inhibition	Potency
CCC(Sc1nc2nccnc2c(=O)n1Cc1ccc(Cl)cc1)C(=O)NC1CCCCC1 (stereo unspecified)	inactive: 5.89%	–
COc1cccc(CNc2sc3c(c2C(=O)Nc2ccc(OC)cc2OC)CCC3)c1	–	inconclusive [inhibitor, full curve]
FC(F)(F)c1ccc(N2CCOCC2)c(NC2=NCCCCC2)c1	–	inconclusive [inhibitor, partial curve]
Oc1c(C(c2ccccc2Cl)N2CCCC2)ccc2cccnc12 (stereo unspecified)	–	inconclusive [inhibitor, full curve, poor fit]
CCCCNC(=S)NNc1c(Cl)cc(Cl)cc1Cl	–	inconclusive [inhibitor, partial curve, poor fit]
CC(C)C(=O)Nc1nnc(NC(=S)Nc2ccccc2)s1	–	active: 25.1 µM
O=C1c2ccccc2NC(c2ccccc2)N1NS(=O)(=O)c1ccccc1 (stereo unspecified)	–	inconclusive [inhibitor, single point]
Cc1ccc(/C=C2\SC(=S)N(/N=C/c3cc([N+](=O)[O-])ccc3O)C2=O)o1	–	active: 8.91 µM
C#CCOCCOCCOCCNc1nc(N2CCN(C(=O)[C@H](CCC(=O)O)n3cc(C(N)Cc4ccc(O)cc4)nn3)CC2)nc(N2CCN(C(=O)[C@H](CCC(=O)O)n3cc(C(N)CC(C)C)nn3)CC2)n1 (stereo partly specified)	–	active: 35.5 µM
CN(c1ccccc1)S(=O)(=O)c1ccc(Cl)c(C(=O)Nc2ccc(-c3nc4ccccc4[nH]3)cc2)c1	inactive: -7.66%	–
COCCCN1C(=O)C(=O)/C(=C(/O)c2ccc(S(=O)(=O)N3CCOCC3)cc2)C1c1ccc(C)cc1 (stereo unspecified)	–	inconclusive [inhibitor, full curve, poor fit]
Cc1cccc(C)c1NC(=O)CN(C)S(=O)(=O)c1ccc(-c2ccc(=O)[nH]n2)s1	–	inconclusive [inhibitor, partial curve, poor fit]
CN(C)CC/C=C1/c2ccccc2COc2ccccc21	–	active: 20 µM
COc1ccccc1NC(=O)CN1C(=O)C(C)(C)c2ccccc21	inactive: 11.2%	–
Cc1ccc(C(c2ccc(C)o2)c2cccc([N+](=O)[O-])c2O)o1	–	inconclusive [inhibitor, partial curve, poor fit]
COc1cc(C(N)=O)cc(Cl)c1OCc1ccccc1	inactive: 3.57%	–
CC(C)c1ccc(C(=O)NCc2ccc(Cl)cc2)cc1	–	inconclusive [inhibitor, single point]
O=[N+]([O-])c1cc(Cl)c(Cl)c(Cl)c1Cl	–	inconclusive [inhibitor, partial curve]
CCOc1cc(CNc2ccc3c(c2)CCC3)ccc1OC	–	inconclusive [inhibitor, single point]
O=C1N/C(=C/c2cccs2)C(=O)N1Cc1ccccc1F	inactive: 0.815%	–
CCn1ccnc1CNC(=O)CC1C(=O)NCCN1Cc1ccc(F)cc1Cl (stereo unspecified)	–	inconclusive [inhibitor, partial curve]
COc1cccc(N2C(=O)CC(N3CCN(C(=O)c4ccco4)CC3)C2=O)c1 (stereo unspecified)	–	inconclusive [inhibitor, partial curve]
O=C(NC(=S)Nc1ccccc1)c1ccc(Br)o1	–	inconclusive [inhibitor, full curve]
Cc1c(Cl)c(=O)n2c(=O)c(Cl)c(C)n12	–	inconclusive [inhibitor, partial curve]

Structure (SMILES)	activity change, negative = inhibition	Potency
CNC(=S)Nc1cccc(C(=O)O)c1	–	active: 3.16 µM
Cc1ccc(NCc2nnc(SCC(=O)NCc3ccco3)n2CC2CCCO2)cc1Cl (stereo unspecified)	–	active: 50.1 µM
COc1ccc(Nc2nnc(-c3cc4cc(Cl)ccc4oc3=O)s2)cc1	–	inconclusive [inhibitor, single point]
CCC(C)NC(=O)c1ccc(Cn2c(=O)c3cccn3c3cccnc32)cc1 (stereo unspecified)	inactive: 6.67%	–
Cc1ccc2cc(/C=C/C(=O)c3ccco3)c(Cl)nc2c1	–	active: 8.91 µM
COCCNC(=S)N/N=C(\C)c1ccc(OC(F)F)cc1	–	inconclusive [inhibitor, full curve, poor fit]
Cc1cc(C(N)=O)c2ccccc2n1	inactive: -16.1%	–
CC[C@@]12C(=O)N(c3cccc(Br)c3)C(=O)N1[C@H](c1ccc(OC)cc1)[C@@H]1C(=O)N(C(C)(C)C)C(=O)[C@@H]12	inactive: -3.69%	–
Cc1ccccc1OCC(=O)N/N=C/c1ccc([N+](=O)[O-])o1	–	inconclusive [inhibitor, full curve, poor fit]
COCCCn1c(=O)c2sccc2n(Cc2cccc(C)c2)c1=O	inactive: -0.162%	–
CC(C)c1ccc(NC(=O)C2CCCN(S(=O)(=O)c3ccc4[nH]c(=O)oc4c3)C2)cc1 (stereo unspecified)	–	inconclusive [inhibitor, single point]
Cc1ccc(C(=O)N2CCCC(Nc3ccc(C(C)C)cc3)C2)cn1 (stereo unspecified)	inactive: -0.027%	–
COCCn1c(-c2ccc(-c3ccc([N+](=O)[O-])cc3Br)o2)nc2c1c(=O)[nH]c(=O)n2CC(C)C	–	active: 44.7 µM
COP(=O)(OC)c1nc(-c2ccc(C)cc2)oc1N1CCCCC1	–	inconclusive [inhibitor, partial curve]
CCCC[C@]12Cc3cc(OC)c(OC)cc3C(O1)C1=C(CC3(CCCCC3)OC1=O)O2	–	active: 11.2 µM
CCC(=O)N1c2ccc(S(=O)(=O)CCC(=O)NCCC3=CCCCC3)cc2CC1C (stereo unspecified)	–	inconclusive [inhibitor, full curve]
Cn1c(=O)[nH]c(=O)c2c1nc(Br)n2C/C=N/Nc1ccccc1	–	inconclusive [inhibitor, partial curve]
C=CCNc1nc(C(=O)OCC(=O)NCc2cccc(Cl)c2)cs1	inactive: 0.599%	–
CCCCNC(=O)c1cc(-c2ccc(F)cc2)on1	inactive: -3.56%	–
O=C(c1cccc([N+](=O)[O-])c1)N1c2nc(-c3ccco3)nn2C2(CCCCC2)[C@@H]2CCCC[C@@H]21	–	inconclusive [inhibitor, full curve]
O=C(NCc1ccccc1)C1=C[C@@H](c2ccc(Br)cc2)C[C@@H](OCCCCO)O1	–	inconclusive [inhibitor, partial curve]
COc1ccc(-n2ncc(Cl)c(Cl)c2=O)cc1	–	inconclusive [inhibitor, full curve]
COc1ccc(C(C(=O)Nc2ccc3c(c2)OCO3)N(C)C(=O)Cc2c[nH]c3ccccc23)cc1 (stereo unspecified)	inactive: -9.7%	–
Cc1c(C)c2ccc(O[C@@H]3O[C@H](CO)[C@H](O)[C@H](O)[C@H]3O)c(C)c2oc1=O	inactive: 12.3%	–

Structure (SMILES)	activity change, negative = inhibition	Potency
O=C(CCNS(=O)(=O)c1ccc(Cl)cc1)NCc1cccnc1	–	inconclusive [inhibitor, full curve, poor fit]
CC(C)(C)c1cc(CN(CCO)CCO)c(O)c(C(C)(C)C)c1	inactive: -35.1%	–
Cc1ccc(N2C(=O)CC(Nc3cccc4ccccc34)C2=O)cc1 (stereo unspecified)	–	active: 22.4 µM
COC(=O)CCCC(=O)N1CCOCCN(C(=O)CCCC(=O)OC)CCOCC1	inactive: -12.3%	–
CCOC(=O)N1CCN(C2=C(NS(=O)(=O)c3ccc(C)cc3)C(=O)c3ccccc3C2=O)CC1	–	inconclusive [inhibitor, partial curve]
CCn1c(SCc2ccc(C(=O)OC)o2)nc2sc3c(c2c1=O)CCCC3	inactive: 10.7%	–
O=C(CCN1C(=O)/C(=C\c2ccc(F)cc2)SC1=S)Nc1ccc(O)cc1	–	inconclusive [inhibitor, partial curve, poor fit]
Cc1ccc(-n2ccnc2SCC(=O)N(CC(C)C)C2CCS(=O)(=O)C2)c(C)c1 (stereo unspecified)	inactive: 10.3%	–
CN(C)Cc1nc2ccccc2c(=O)n1Cc1nc(-c2cc3ccccc3o2)cs1	inactive: -8.32%	–
CN(C)S(=O)(=O)c1cc(NC(=O)CN2CCc3ccccc32)ccc1Cl	–	active: 44.7 µM
O=S(=O)(c1cccc(NC(=S)NCc2ccco2)c1)N1CCOCC1	–	inconclusive [inhibitor, partial curve]
Cc1cc(C)cc(N2C(=O)CS(=O)(=O)C23C(=O)N(C)c2ccccc23)c1 (stereo unspecified)	–	inconclusive [inhibitor, partial curve]
O=C(CCCn1nnnc1CN1CCOCC1)N1CCC(c2ccccc2Cl)C1 (stereo unspecified)	–	inconclusive [inhibitor, partial curve]
COC(=O)c1sccc1NC(=O)Cn1cnc2c1c(=O)n(C)c(=O)n2C	–	inconclusive [inhibitor, single point]
Cc1cc(C)cc(-n2ncc3c2CCCC3NC(=O)CN2CCCC2=O)c1 (stereo unspecified)	inactive: 2.17%	–
CCCOc1cccc(C(=O)NC(=S)Nc2ccccc2)c1	–	inconclusive [inhibitor, partial curve, poor fit]
O=C(NC1CC2CCCC(C1)N2Cc1ccco1)NC12CC3CC(CC(C3)C1)C2 (stereo unspecified)	inactive: 1.99%	–
CC(Sc1nc2ccccc2c(=O)n1C)C(=O)N(C)C1CCCCC1 (stereo unspecified)	inactive: 2.62%	–
CCn1c2c(c(=O)n3ncc(C(=O)Nc4ccc(OC(F)(F)F)cc4)c13)CN(Cc1ccc(OC)cc1)CC2	inactive: 9.36%	–
C[C@@H]1C[C@@H]2OC(=O)[C@]3(C)[C@H]2[C@@H](OC3(C)O)[C@]2(C)C(=O)C=C[C@H]12 (stereo partly specified)	–	inconclusive [inhibitor, partial curve, poor fit]
Cc1ccc(C(C2C(=O)CC(C)(C)CC2=O)C2C(=O)CC(C)(C)CC2=O)s1	–	inconclusive [inhibitor, partial curve]
O=C1c2ccc([N+](=O)[O-])cc2NC(c2ccco2)N1/N=C/c1ccco1 (stereo unspecified)	–	active: 39.8 µM
Cc1nnc(Sc2cc(NCCO)c([N+](=O)[O-])c3nonc23)s1	–	inconclusive [inhibitor, full curve, poor fit]
